Whole data set: some 33,000 sequences, median “E-score (-0.5 to 0.5)” near -0.043, cut for the highest 2% near 0.37. This is one part of the list.

In this experiment the target is T1, Upc2 (UniProt Q12151).
T1 sequence: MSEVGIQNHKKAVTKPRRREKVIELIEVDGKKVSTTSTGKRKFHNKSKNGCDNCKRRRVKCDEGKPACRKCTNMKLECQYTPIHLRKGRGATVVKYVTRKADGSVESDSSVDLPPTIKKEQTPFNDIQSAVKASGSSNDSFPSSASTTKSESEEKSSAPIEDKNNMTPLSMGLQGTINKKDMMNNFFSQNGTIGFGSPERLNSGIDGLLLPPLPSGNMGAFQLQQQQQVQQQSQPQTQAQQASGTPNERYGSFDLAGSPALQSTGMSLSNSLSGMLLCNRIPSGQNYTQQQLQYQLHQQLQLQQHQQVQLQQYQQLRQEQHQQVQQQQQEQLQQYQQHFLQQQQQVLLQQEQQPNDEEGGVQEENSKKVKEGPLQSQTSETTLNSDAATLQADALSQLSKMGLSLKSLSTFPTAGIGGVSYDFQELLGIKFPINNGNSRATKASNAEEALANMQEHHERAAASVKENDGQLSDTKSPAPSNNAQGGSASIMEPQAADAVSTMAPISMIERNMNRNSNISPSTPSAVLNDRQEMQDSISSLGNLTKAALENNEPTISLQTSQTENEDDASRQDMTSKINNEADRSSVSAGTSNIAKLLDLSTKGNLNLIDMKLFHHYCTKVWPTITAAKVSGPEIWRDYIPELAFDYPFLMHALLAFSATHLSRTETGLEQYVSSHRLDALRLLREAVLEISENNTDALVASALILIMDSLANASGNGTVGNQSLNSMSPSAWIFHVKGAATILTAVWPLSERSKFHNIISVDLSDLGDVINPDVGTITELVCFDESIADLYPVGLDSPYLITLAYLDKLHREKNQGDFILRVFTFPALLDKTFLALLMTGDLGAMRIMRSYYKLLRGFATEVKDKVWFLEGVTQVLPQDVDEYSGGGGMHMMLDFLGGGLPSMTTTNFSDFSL
The experiment can be described thus: PBM E-score (8-mer binding enrichment) (E-score (-0.5 to 0.5)); higher = stronger / more preferred TF binding; most listed sequences are background and not binding sites. The note with it: protein concentration: 200 nM; construct: GST-full length. Here is the method:
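Universal 'all 10-mer' protein binding microarrays (Agilent AMADID 015681) probed with GST-tagged S. cerevisiae TFs (full-length or DBD) made by in vitro transcription/translation (PURExpress), about 100-200 nM. Bound TF was detected with fluorescent anti-GST. Each ungapped 8-mer (which stands for itself and its reverse complement) is scored by the PBM enrichment score (E-score), a modified Wilcoxon-Mann-Whitney statistic from -0.5 to +0.5, computed with the Universal PBM Analysis Suite. Scale: above 0.35 generally sequence-specific binding.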
With CGTACAAC, the “PBM E-score” value came to 0.439.
Take ATGCACGC: the “PBM E-score” value was -0.103.
As for ATCAATAA, the “PBM E-score” value turned out to be 0.0472.
With CGCTGCGC, the “PBM E-score” value was 0.0138.
As for AAGTCGAA, the “PBM E-score” value was -0.16.
Regarding CGTCAAAC, the “PBM E-score” value is 0.242.
Regarding AACCGCTA, the “PBM E-score” value is -0.0239.
For AACCAATT, the “PBM E-score” value is -0.179.
As for AAGCTAGT, the “PBM E-score” value is -0.189.
For the sequence CTTTGAAA, the “PBM E-score” value came out at 0.142.
Consider TCAGTCCA, for which the “PBM E-score” value is -0.272.
GCTGTCCA: the “PBM E-score” value was -0.246.
As for TATAGCCA, the figure is 0.173; as for CGGCGGCA, -0.106; as for CGGCAGTC, 0.0795.
The result for CCAGTTCC reads -0.102; that for AAAGATCT, 0.0358.
The result for TACTTATA reads 0.117.
As for CATGTCGA, the “PBM E-score” value was -0.171.
As for TAATTTGA, the “PBM E-score” value was 0.0182.
As to AAACCTTT, the “PBM E-score” value is -0.138.
As for ATACGTTG, the figure is 0.325.
As for CGCATCAC, the “PBM E-score” value is -0.0629.
Take ATCTCGCC: the “PBM E-score” value was -0.0574.
Regarding TCCGGCCA, the “PBM E-score” value is -0.106.
In the case of AGTCTGTC, the “PBM E-score” value is -0.0794.
With ACTAGTGG, the “PBM E-score” value was -0.223.
On to ATAGCAAC, for which the “PBM E-score” value is -0.172.
AAGAGGGA: the “PBM E-score” value was determined as 0.0615.
On to CGACGCAA, for which the “PBM E-score” value turned out to be 0.121.
On to TCGCCGCA, for which the “PBM E-score” value is -0.0606.
Take AGAGACGG: the “PBM E-score” value was -0.226.
With AGGTGTGA, the “PBM E-score” value is -0.259.
As to CGCAGGCG, the “PBM E-score” value was -0.263.
Regarding ACGAGACC, the “PBM E-score” value is 0.347.
Take AGCGATAG: the “PBM E-score” value was 0.0747.
Regarding CCATGTTA, the “PBM E-score” value was -0.0947.
For the sequence CCTCGTAA, the “PBM E-score” value was determined as 0.444.
Turning to AACTTCTA, the “PBM E-score” value is -0.0203.
As for TAATACCA, the “PBM E-score” value was -0.0667.
The result for AGCGTCGG reads 0.073; that for ACAGAGAG, -0.14; that for CCAGTTTA, 0.0344.
On to CAGGGCGG, for which the “PBM E-score” value is -0.129.
Turning to AACAACGA, the “PBM E-score” value is 0.17.
As for GCGGTCAC, the figure is -0.134.
Turning to AGGTCACA, the “PBM E-score” value is -0.149.
Take AATGACAA: the “PBM E-score” value is -0.0542.
As for TAGGCGAA, the figure is 0.0974.
As to AGGACCTA, the “PBM E-score” value is 0.0278.
TGCTGAAA: the “PBM E-score” value is -0.21.
As for AGCGCATC, the figure is 0.201; as for CATCGCGG, -0.0154.
ATGCCATG: the “PBM E-score” value was found to be 0.0786.
CTGTCTCC: the “PBM E-score” value is -0.11.
With ACGCTCCT, the “PBM E-score” value turned out to be 0.0165.
The result for TACAGGTA reads 0.265.
As for AAATCACT, the “PBM E-score” value amounted to 0.0881.
For the sequence AAACCGGC, the “PBM E-score” value is -0.0443.
Turning to GCTTGCAC, the “PBM E-score” value was found to be 0.0585.
As for CCTATCAC, the figure is -0.207; as for CGAGACGA, 0.213.
On to GGCGCCCC, for which the “PBM E-score” value is -0.209.
With ATTAGGCA, the “PBM E-score” value was -0.0908.
Turning to AGGAATAT, the “PBM E-score” value is 0.0737.
As for ACTGAACT, the “PBM E-score” value was -0.0256.
For the sequence AGGCTGCA, the “PBM E-score” value was -0.203.
For the sequence GACCTATA, the “PBM E-score” value is 0.244.
Turning to CAGGTTGC, the “PBM E-score” value is -0.0756.
On to CCGGCTAG, for which the “PBM E-score” value was -0.228.
For the sequence GGCCACCC, the “PBM E-score” value is -0.0635.
Turning to GGGAGAAA, the “PBM E-score” value is -0.036.
The result for GTGTATTA reads 0.0796; that for AGTGCACT, -0.22; that for CACATTGG, -0.179.
As for ATCAATCA, the figure is 0.0322; as for CGGCTGAA, -0.0225.
Take ATCTGGAG: the “PBM E-score” value is -0.207.
As for TAGGTTGA, the figure is -0.08; as for CCGTGTGC, -0.306; as for GCAAGACC, -0.0223.
As to CCTTCGGC, the “PBM E-score” value is -0.284.
For CGCAGCCC, the “PBM E-score” value was -0.0774.
The result for GGACAGCC reads -0.0462.
Regarding GGCCGACA, the “PBM E-score” value is -0.0541.
AGCGGCCG: the “PBM E-score” value stood at 0.18.

The values above are taken from the supplement of paper PMC3334620.
